Source: the supplement of paper PMC4604168 (melanoma cell lines)
The list shows a part of the results. Most values come without repeats; read them as rough.

How the values were obtained:
Assay in all cases: cell count relative to DMSO control; melanoma cells; higher = more viable cells
Conditions in all cases: library dose: low library concentration; 72 h
COLO792 = test system: COLO792
COLO800 = test system: COLO800
COLO829 = test system: COLO829
G361 = test system: G361
IPC-298 = test system: IPC-298
IST-MEL1 = test system: IST-MEL1
LB2518-MEL = test system: LB2518-MEL
LOXIMVI = test system: LOXIMVI
MEL-HO = test system: MEL-HO
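Also: cell number obtained by counting DAPI-stained nuclei in high-throughput microscope images with image analysis software, screen run in 1,536-well plates.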

Compound	cell count (COLO792) [%]	cell count (COLO800) [%]	cell count (COLO829) [%]	cell count (G361) [%]	cell count (IPC-298) [%]	cell count (IST-MEL1) [%]	cell count (LB2518-MEL) [%]	cell count (LOXIMVI) [%]	cell count (MEL-HO) [%]
Clc1ccc(Nc2nnc(Cc3ccncc3)c3ccccc23)cc1 [vatalanib] + CCCCCCCCCCCC1=C(O)C(=O)C=C(O)C1=O [Embelin] (first compound 2 µM, partner dose 1.2 µM)	95.2	59.8	72.1	105	98.7	92.5	120	104	86.9
O=C(CCCCCCC(=O)Nc1ccccc1)NO [vorinostat] + CN(C)S(=O)(=O)c1ccc2c(c1)/C(=C/c1cc3c([nH]1)CCCC3)C(=O)N2 [SU6656] (first compound 0.08 µM, partner dose 0.4 µM)	94.6	96.7	102	92.4	96.4	97.6	85.8	129	99.8
O=C(CCCCCCC(=O)Nc1ccccc1)NO [vorinostat] + O=C(Nc1cccc(Cl)c1)Nc1ncc(CCNc2ncnc3ccsc23)s1 [SNS314] (first compound 0.08 µM, partner dose 0.0008 µM)	92.2	52.2	76.1	100	98.2	91.7	78.6	71	93.9
C#Cc1cccc(Nc2ncnc3cc(OCCOC)c(OCCOC)cc23)c1 [erlotinib] + Cn1cncc1[C@@](N)(c1ccc(Cl)cc1)c1ccc2c(c1)c(-c1cccc(Cl)c1)cc(=O)n2C [tipifarnib] (first compound 0.8 µM, partner dose 0.01 µM)	79.4	102	100	89.9	89.3	103	84.7	76.1	100
Cn1c(Nc2ccc(C(F)(F)F)cc2)nc2cc(Oc3ccnc(-c4ncc(C(F)(F)F)[nH]4)c3)ccc21 + OCCn1cc(-c2cnc3nnn(Cc4ccc5ncccc5c4)c3n2)cn1 [PF04217903] (first compound 0.08 µM, partner dose 1 µM)	61.7	92.9	97.1	81.4	77.8	98.6	60.4	85.9	69.2
Cn1c(Nc2ccc(C(F)(F)F)cc2)nc2cc(Oc3ccnc(-c4ncc(C(F)(F)F)[nH]4)c3)ccc21 + Cc1ccc(NC(=O)c2cccc(N(C)C)c2)cc1NC(=O)c1ccc(O)cc1 [ZM336372] (first compound 0.08 µM, partner dose 2 µM)	42.5	82.1	102	59.1	51	83.4	42.3	92.3	70.7
Nc1cccc2c1CN(C1CCC(=O)NC1=O)C2=O (stereo unspecified) [lenalidomide] + C=CCn1c(=O)c2cnc(Nc3ccc(N4CCN(C)CC4)cc3)nc2n1-c1cccc(C(C)(C)O)n1 [MK1775] (first compound 1 µM, partner dose 0.02 µM)	99	113	97.8	107	107	96.1	97.1	54.6	94.5
Nc1cccc2c1CN(C1CCC(=O)NC1=O)C2=O (stereo unspecified) [lenalidomide] + Cc1cc(N2CCOCC2)cc2[nH]c(-c3c(NC[C@@H](O)c4cccc(Cl)c4)cc[nH]c3=O)nc12 [BMS536924] (first compound 1 µM, partner dose 0.2 µM)	76.6	65.9	112	82.6	93	87.3	107	53.4	89.5
OCc1c[nH]c2ccccc12 [Indole-3-carbinol] + COc1cc2c(Oc3ccc4[nH]c(C)cc4c3F)ncnc2cc1OCCCN1CCCC1 [cediranib] (first compound 0.8 µM, partner dose 0.4 µM)	91.5	79.3	125	90.5	93.4	107	81.3	126	100
Clc1ccc(Nc2nnc(Cc3ccncc3)c3ccccc23)cc1 [vatalanib] + CN(C)S(=O)(=O)c1ccc2c(c1)/C(=C/c1cc3c([nH]1)CCCC3)C(=O)N2 [SU6656] (first compound 2 µM, partner dose 0.4 µM)	83.8	59.9	79.6	84	92.7	96.3	79.6	91.8	91.7
C#Cc1cccc(Nc2ncnc3cc(OCCOC)c(OCCOC)cc23)c1 [erlotinib] + O=C(Nc1cccc(Cl)c1)Nc1ncc(CCNc2ncnc3ccsc23)s1 [SNS314] (first compound 0.8 µM, partner dose 0.0008 µM)	84.7	85.7	93.3	91.6	99.5	91.2	83.8	104	91.4
Clc1ccc(Nc2nnc(Cc3ccncc3)c3ccccc23)cc1 [vatalanib] + O=S(=O)(c1ccccc1)N(CC(F)(F)F)c1ccc(C(O)(C(F)(F)F)C(F)(F)F)cc1 [T0901317] (first compound 2 µM, partner dose 1.4 µM)	109	130	74.8	93.1	87.2	100	101	118	87.7
OCc1c[nH]c2ccccc12 [Indole-3-carbinol] + COc1cc(N2CCC(N3CCN(C)CC3)CC2)ccc1Nc1ncc(Cl)c(Nc2ccccc2S(=O)(=O)C(C)C)n1 [NVP-TAE684] (first compound 0.8 µM, partner dose 0.08 µM)	82.2	102	81.1	98.9	102	99.9	84.6	99.6	103
OCc1c[nH]c2ccccc12 [Indole-3-carbinol] + CCN(CC)CCCCNc1ncc2cc(-c3cc(OC)cc(OC)c3)c(NC(=O)NC(C)(C)C)nc2n1 [PD173074] (first compound 0.8 µM, partner dose 0.1 µM)	90	117	81.8	108	107	107	81.7	89.5	103
Nc1cccc2c1CN(C1CCC(=O)NC1=O)C2=O (stereo unspecified) [lenalidomide] + CN(C)S(=O)(=O)c1ccc2c(c1)/C(=C/c1cc3c([nH]1)CCCC3)C(=O)N2 [SU6656] (first compound 1 µM, partner dose 0.4 µM)	88	86.4	80.8	93.5	96.7	99	90.5	86.4	102
OCc1c[nH]c2ccccc12 [Indole-3-carbinol] + COc1cc(Nc2ncc(F)c(Nc3ccc4c(n3)NC(=O)C(C)(C)O4)n2)cc(OC)c1OC [Tamatinib] (first compound 0.8 µM, partner dose 0.4 µM)	68.2	72.1	71.9	94.2	68.4	89.6	90.6	71.2	90.8
Cn1c(Nc2ccc(C(F)(F)F)cc2)nc2cc(Oc3ccnc(-c4ncc(C(F)(F)F)[nH]4)c3)ccc21 + Cn1cncc1[C@@](N)(c1ccc(Cl)cc1)c1ccc2c(c1)c(-c1cccc(Cl)c1)cc(=O)n2C [tipifarnib] (first compound 0.08 µM, partner dose 0.01 µM)	34.5	59.5	83.8	57.9	56.9	81	55	62.2	77.7
OCc1c[nH]c2ccccc12 [Indole-3-carbinol] + Oc1cc(-c2nc(-c3ccccc3)[nH]c2-c2ccncc2)ccc1Cl [L779450] (first compound 0.8 µM, partner dose 0.2 µM)	95.1	108	109	100	78.3	106	103	108	96.5
Nc1cccc2c1CN(C1CCC(=O)NC1=O)C2=O (stereo unspecified) [lenalidomide] + NC(=O)Nc1cc(-c2cccc(F)c2)sc1C(=O)N[C@H]1CCCNC1 [AZD7762] (first compound 1 µM, partner dose 0.02 µM)	92.5	103	120	118	105	106	151	131	91.4
Cn1c(Nc2ccc(C(F)(F)F)cc2)nc2cc(Oc3ccnc(-c4ncc(C(F)(F)F)[nH]4)c3)ccc21 + CC(C)(C)c1cnc(CSc2cnc(NC(=O)C3CCNCC3)s2)o1 [SNS-032] (first compound 0.08 µM, partner dose 0.01 µM)	39.3	61.9	81.8	64.5	57.4	89.2	52.9	64.2	68.1
Clc1ccc(Nc2nnc(Cc3ccncc3)c3ccccc23)cc1 [vatalanib] + O=C(Nc1ccccc1)c1cc([N+](=O)[O-])ccc1Cl [GW9662] (first compound 2 µM, partner dose 2 µM)	101	121	62.8	95.8	100	90.4	62.9	86.7	90.4
O=C(CCCCCCC(=O)Nc1ccccc1)NO [vorinostat] + Cn1cncc1[C@@](N)(c1ccc(Cl)cc1)c1ccc2c(c1)c(-c1cccc(Cl)c1)cc(=O)n2C [tipifarnib] (first compound 0.08 µM, partner dose 0.01 µM)	87.4	138	103	105	101	89.9	82.9	115	82.7
OCc1c[nH]c2ccccc12 [Indole-3-carbinol] + Cc1cc(N2CCOCC2)cc2[nH]c(-c3c(NC[C@@H](O)c4cccc(Cl)c4)cc[nH]c3=O)nc12 [BMS536924] (first compound 0.8 µM, partner dose 0.2 µM)	89.8	59.9	97.5	101	94.6	97.9	113	112	93.4
O=C(CCCCCCC(=O)Nc1ccccc1)NO [vorinostat] + C[C@@H]1CCN(C(=O)CC#N)C[C@@H]1N(C)c1ncnc2[nH]ccc12 [CP690550] (first compound 0.08 µM, partner dose 1 µM)	109	84.7	96.2	98.4	99.5	97.4	115	96	96.9
